Laboratory results taken from US8933233B2, “1,3,4-oxadiazole and 1,3,4-thiadiazole β-lactamase inhibitors” (priority 2012, dated 2015).
Counter-ions that a name gives are not always drawn. At least one compound was matched to its structure with a doubt left. Some of these results come from one statement about several compounds together.

The compounds below were run against KPC-2 (Klebsiella pneumoniae, UniProt Q9F663) (assay: not given). Settings: KPC-2, procedure of Example 102, Table IV (kinact/K).
Chain of KPC-2 (Q9F663 25-293 limits assumed): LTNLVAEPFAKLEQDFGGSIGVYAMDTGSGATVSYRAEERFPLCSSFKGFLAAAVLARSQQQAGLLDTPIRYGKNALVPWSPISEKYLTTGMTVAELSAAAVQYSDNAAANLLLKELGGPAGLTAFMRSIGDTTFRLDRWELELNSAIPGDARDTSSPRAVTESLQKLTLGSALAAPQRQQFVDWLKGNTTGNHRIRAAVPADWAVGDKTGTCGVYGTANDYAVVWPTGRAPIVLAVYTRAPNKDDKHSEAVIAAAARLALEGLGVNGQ
Format: biochemical, K. pneumoniae
In the case of `C[n+]1ccc(-c2nnc([C@@H]3CC[C@@H]4CN3C(=O)N4OS(=O)(=O)[O-])s2)cc1` [Compound 786, (2S,5R)-2-(5-(1-methylpyridin-1-ium-4-yl)-1,3,4-thiadiazol-2-yl)-7-oxo-1,6-diazabicyclo[3.2.1]octan-6-yl sulfate], the binding affinity is reported as 1 to 99 mM⁻¹ s⁻¹. With `O=C1N2C[C@@H](CC[C@H]2c2nnc(CCCN3CCNCC3)o2)N1OS(=O)(=O)O` [Compound 792, (2S,5R)-7-oxo-2-(5-(3-(piperazin-1-yl)propyl)-1,3,4-oxadiazol-2-yl)-1,6-diazabicyclo[3.2.1]octan-6-yl hydrogen sulfate] the binding affinity was 1 to 99 mM⁻¹ s⁻¹. Compound `N=C(N)NCCc1nnc([C@@H]2CC[C@@H]3CN2C(=O)N3OS(=O)(=O)O)s1` [Compound 794, (2S,5R)-2-(5-(2-guanidinoethyl)-1,3,4-thiadiazol-2-yl)-7-oxo-1,6-diazabicyclo[3.2.1]octan-6-yl hydrogen sulfate] has a binding affinity of 100 to 999 mM⁻¹ s⁻¹. `C[N+]1(C)CCC(c2nnc([C@@H]3CC[C@@H]4CN3C(=O)N4OS(=O)(=O)O)s2)CC1` [Compound 796, (2S,5R)-2-(5-(1,1-dimethylpiperidin-1-ium-4-yl)-1,3,4-thiadiazol-2-yl)-7-oxo-1,6-diazabicyclo[3.2.1]octan-6-yl sulfate] was tested, and the binding affinity was 1 to 99 mM⁻¹ s⁻¹. `O=C1N2C[C@@H](CC[C@H]2c2nnc(N3CCNCC3)s2)N1OS(=O)(=O)O` [Compound 797, (2S,5R)-7-oxo-2-(5-(piperazin-1-yl)-1,3,4-thiadiazol-2-yl)-1,6-diazabicyclo[3.2.1]octan-6-yl hydrogen sulfate] gave a binding affinity of 1 to 99 mM⁻¹ s⁻¹. Compound `O=C1N2C[C@@H](CC[C@H]2c2nnc(-c3ccncc3)s2)N1OS(=O)(=O)O` [Compound 798, (2S,5R)-7-oxo-2-(5-(pyridin-4-yl)-1,3,4-thiadiazol-2-yl)-1,6-diazabicyclo[3.2.1]octan-6-yl hydrogen sulfate] has a binding affinity of 100 to 999 mM⁻¹ s⁻¹.

Each compound was assayed on bacterial strains that express KPC β-lactamases (assay: Synergy MIC / standard BLI potentiation MIC assay, strains expressing KPC β-lactamases). Settings: more active for at least one KPC strain and/or better spectrum; comparator Avibactam.
Format: cell-based, isogenic E. coli and clinical isolates
Protocol: Unless otherwise indicated, the activity of the BLI compounds can be described by the MIC value obtained from a Synergy MIC assay or a BLI potentiation assay (e.g as described herein), both of which are run in the presence of a β-lactam.
The experimental protocol was performed according to Clinical and Laboratory Standards Institute (CLSI) guidelines with modifications as described below (CLSI guidelines can be derived from the CLSI document M07-A9 published in January 2012: “Methods for Dilution Antimicrobial Susceptibility Tests for Bacteria That Grow Aerobically; Approved Standard-Ninth Edition”).
To prepare for MIC testing, frozen glycerol stocks of clinical isolates (Klebsiella pneumoniae, Eschericia coli, Enterobacter spp, Citrobacter spp, or Pseudomonas aeruginosa) were used to streak for isolated colonies on rich, non-selective, tryptic soy agar containing 5% sheep's blood (TSAB). […]
Plates were incubated for 18-20 hours at 37° C. with aeration (200 rpm). Following incubation, growth was confirmed visually placing plates over a viewing apparatus (stand with a mirror underneath) and then OD600 was measured using a SpectraMax 340PC384 plate reader (Molecular Devices, Sunnyvale, Calif.). Growth was defined as turbidity that could be detected with the naked eye or achieving minimum OD600 of 0.1. […]
For `C[n+]1ccc(-c2nnc([C@@H]3CC[C@@H]4CN3C(=O)N4OS(=O)(=O)[O-])s2)cc1` [Compound 786, (2S,5R)-2-(5-(1-methylpyridin-1-ium-4-yl)-1,3,4-thiadiazol-2-yl)-7-oxo-1,6-diazabicyclo[3.2.1]octan-6-yl sulfate], the “activity and/or spectrum of activity against bacterial strains that express KPC β-lactamases, compared with Avibactam” value was “more active than Avibactam”.
